± gives the standard deviation of the averaged measurements. The list shows a part of the results.
What follows are sequences tested on PfAP2-I AP2 domain 3 (GST-tagged) (assay: gcPBM binding intensity (ln(normalized median fluorescence intensity)); higher = stronger DNA binding).
Procedure, shortened: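 For binding intensity, the highest Masliner-normalised natural-log median intensity across replicate spots of either probe orientation was taken. Protein bound to the array was stained with Alexa488 anti-GST antibody and scanned at 488 nm. The protein, GST-tagged P. falciparum DNA-binding domains from E. coli at about 25 μg on average, had been applied for 1 h to an Agilent 4 × 180k array of primer-extended double-stranded 36-bp intergenic genomic probes and negative controls.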

Point of comparison: “AAGAAAAAATGATGAATAGAGATCAAATCTATATAT [TGCATGCA_negctrl_site29]”, “gcPBM binding intensity (ln)” value 7.36 ± 0.68. Against it:
- GTTAACAAATAATGCACACAAATGGATAAAATTATA [CACACA_site3725] — higher, 10.7 ± 0.76
- TATTATTAATATGTATGGTTGTAATCTGTGTCTCCT [TGCATGCA_negctrl_site190] — within error, 7.88 ± 0.43
- AATATAATTTTTTATTGTACAAAAAAATTATTTAAT [XGTACX_site3248] — within error, 7.65 ± 0.38
- AATAAGTATACACATACACACACACCCAAAAAAAAA [CACACA_site8034] — higher, 8.39 ± 0.31
- CATTTTGTAAGATATGCACACATGGATCATATTTTA [CACACA_site423] — higher, 8.74 ± 0.27
- TTTTTTTTTATCAAATGTACATATATATAATAATAA [XGTACX_site3941] — within error, 7.96 ± 0.35
- CTTAATAAGAATAAATGTACAAGGGATAAAAAATTT [XGTACX_site3213] — within error, 8.02 ± 0.73
- TATTTAATTATTTGTAGTACGATTAATATTTAATGA [XGTACX_site3553] — within error, 7.54 ± 0.26
- ATAGAATATTAATAATTAAAAATAAAATAAAATAAA [CACACA_negctrl_site1810] — within error, 7.84 ± 0.68
- ATATATATGTATGTATGTACACACAAAAAATGGAAT [XGTACX_site7879] — within error, 8.37 ± 0.64
- ATATGCTATTATATATGTACACACCAATTTATTTAT [XGTACX_site8364] — within error, 8.29 ± 0.56
- TACAAAATAAATGGAACATGCAAAAAAATTGATTAA [TGCATGCA_site790] — within error, 7.86 ± 0.75
- AAAAAAAAAAAAAAAACACACATTTTAAGAAAAAAA [CACACA_site2926] — higher, 8.86 ± 0.64
- ATTATATTCTTTACTACCAATTAGTAGAAAATAAAA [CACACA_negctrl_site1096] — within error, 7.61 ± 0.29
- ATATATATATGTTTGTGTACTTATGATATCATATAA [XGTACX_site3276] — higher, 9 ± 0.23
- TAAATAAATAAAAATAGTACATAATTATTATTATTA [XGTACX_site4981] — within error, 7.42 ± 0.22
- TTTTAAAAAATATAATAATATAAATATGTTTTATAC [CACACA_negctrl_site643] — within error, 7.54 ± 0.42
- TTAAAATAGCTAGTTTGTACATAAAATATATTACTT [XGTACX_site202] — within error, 7.43 ± 0.49
- AATATATATATATATATTTTTGTTAGAATATGGAAT [GTGCAC_negctrl_site434] — within error, 7.74 ± 0.38
- TATATTAGAAAGGATACACACATATATATATATCTA [CACACA_site570] — within error, 7.58 ± 0.53
- ATAACTTTTTAAAAGACACACATAAGAAAAACAAAA [CACACA_site723] — within error, 8.08 ± 0.64
- ATAAAACGAAGATGTTGTACGTACAAATAAATGAAT [XGTACX_site2472] — within error, 8.47 ± 0.45
- TATACGCAGAAACACACACACATACACCCACATACA [CACACA_site1723] — higher, 8.24 ± 0.099
- TATCTTATAAACTCTGCACACATAATATATTAAATG [CACACA_site8587] — within error, 8.36 ± 0.51
- TTAATTAATTTTTCAGTGCAAATAAAAAATATTTAA — higher, 10.4 ± 0.64
- CAAAAGTAAGCACGCACACACAACATGAAATAAACT [CACACA_site6223] — within error, 8.36 ± 0.63
- AAAAATTTTAATTAGGAACACACATATATATATATA [CACACA_site9016] — higher, 9.43 ± 0.38
- AACGTTCATAATTATTGTACCCTCATTTTATTTTTT [XGTACX_site503] — within error, 7.96 ± 0.83
- TATATTAATATGAAAAGTACACATTCTATATATATA [XGTACX_site929] — higher, 8.61 ± 0.26
- ACATAATTTGATAATACACACAAATAATCTAAAATT [CACACA_site129] — within error, 7.8 ± 0.43
- AAAATAATCACATATTGTACAAAAAAATTTATTAAA [XGTACX_site3239] — within error, 7.82 ± 0.55
- TTTAATTATAAAACGTGTACATAATTATAATTACAT [XGTACX_site2206] — within error, 8.45 ± 0.42
- AAAAAATGGATGATCACACACTTCATAAAAATTGCA [CACACA_site5256] — within error, 7.38 ± 0.59
- AAAAAAAAAAAAAAATGTACCCATATATAAATATAT [XGTACX_site4061] — within error, 8.34 ± 0.4
- ATTATGTACAAAATGGTGCAATATTATACATATATA [GTGCAC_site9468] — higher, 11.1 ± 0.49
- AAAAATAGTATAAGTAGTACAACTGAAAAGTTATGT [XGTACX_site7488] — within error, 7.96 ± 0.57
- ATCATTTGCTCACGCACACACACATAAAAAGAAAAA [CACACA_site4349] — higher, 8.53 ± 0.18
- GACTTTTCAATTTTTCGTACGTATAAATTGTATACA [XGTACX_site1488] — within error, 7.88 ± 0.57
- TTTTGTTACTTTTATGTGCACTTATAAAACGAACTA [GTGCAC_site9551] — higher, 11.3 ± 0.085
- CTAATATATATCAATTGTACATATTGAATAAGAACA [XGTACX_site4541] — within error, 7.89 ± 0.15
- TTTTTATTGTTGTACTTATATTATTTTATTATTAAA [GTGCAC_negctrl_site200] — within error, 8.23 ± 0.38
- ATTCATTCATATGTTACACACACACCGACACATAAA [CACACA_site5749] — within error, 8.38 ± 0.49
- TATTAAACTGGACACACACACACACCCATATATAAA [CACACA_site4579] — within error, 8.1 ± 0.28
- AAATTATGTGCCAATACACACACACCGATATATATA [CACACA_site8050] — within error, 8.37 ± 0.58
- ATAATATAGAAACACACACACATATATATATACATT [CACACA_site555] — within error, 7.85 ± 0.48
- TTTATATATAAATATATATATATATATATATATATA [TGCATGCA_negctrl_site121] — higher, 9.07 ± 0.76
- TAGTTTTTATATAGCACACATATTGTGATTATGTAT [CACACA_site1196] — higher, 9.09 ± 0.21
- TACTACCACGGACATGCATGCACATTATTACTCTAA [TGCATGCA_site313] — within error, 8.25 ± 0.75
- TTCTTAGATTGTACAGTACACACCTTTAGAATGTTA [CACACA_site212] — within error, 7.97 ± 0.47
- AATTCATTTTACCCATGTACACAATTATATTTTATA [XGTACX_site4127] — within error, 8.29 ± 0.36
- ACATTCATAAAAAAAAGTACATTTTTTATAAAAGAA [XGTACX_site6197] — within error, 7.74 ± 0.52
- TTGTTAAATATTTATAAAATGAATTTAAAATGTACT [CACACA_negctrl_site665] — within error, 7.83 ± 0.3
- TATATTTAGAATACAATCTTAAAGTTGAAATAAAAT [CACACA_negctrl_site1292] — within error, 7.39 ± 0.49
- AAAAAAAAAACATACACACACACAAATATTTATATA [CACACA_site437] — within error, 7.59 ± 0.48
- TTTATTATCTTATTCACACACATATATAAATATGTA [CACACA_site7369] — within error, 7.75 ± 0.61
- AACATAATAAAAAAACGTACATAATTTTATATACAT [XGTACX_site6602] — within error, 7.88 ± 0.21
- ATATATCCAATATATATATATATATATATATATATA [CACACA_negctrl_site160] — higher, 9.2 ± 0.67
- CTAAAAAATAGTAAAAGTACATAAATAATTTTGCTT [XGTACX_site8919] — within error, 7.58 ± 0.33
- ACAATTATTTTGTTCTTTAATGGTAGGTTCTATGTC [CACACA_negctrl_site1419] — within error, 7.64 ± 0.52
- TTACACATGTTTAACTGTACACATAATAGCAATATT [XGTACX_site8545] — within error, 8.15 ± 0.42
- CATAAATTACTTTTTACACACTAAAATAAAATACAA [CACACA_site1135] — within error, 7.84 ± 0.2
- AATACACGCAGACACACACACACACGCACATATATA [CACACA_site6447] — within error, 8.26 ± 0.59
- GAAAAAAGAAATTAAACATGCATCTGCAAATTTAAA [TGCATGCA_site974] — within error, 7.42 ± 0.74
- AATAATATTTAATACACACACCAGTTCTGCAAATTT [CACACA_site7712] — within error, 8.13 ± 0.65
- AATAGTAAAAGATATACACACACCAAAAAATATAAT [CACACA_site5293] — within error, 7.96 ± 0.57
- ACATAATAAAAATAAATTCATAAGTAAATAAATAAA [TGCATGCA_negctrl_site186] — within error, 7.42 ± 0.59
- TGCTACATTTTATGTACACACATATACAGATATATA [CACACA_site4646] — within error, 7.84 ± 0.4
- TGAATAAATCAAAGCACACATACACCCACATATATA [CACACA_site286] — higher, 8.46 ± 0.25
- ATACAATTTATTTTAACACACGAATGAATTGATTAT [CACACA_site4160] — within error, 7.76 ± 0.63
- ATACAAATATACTTTTGTACGAAGAAATATATATAT [XGTACX_site3912] — higher, 8.78 ± 0.057
- GGTTCATATCTTAACACACACATACATATTATAGAT [CACACA_site7392] — within error, 8.32 ± 0.42
- TAAAGAAACTATTCAACACACGGTCTAATTATTACA [CACACA_site1064] — within error, 7.44 ± 0.58
- ATAAAAAAAATAAAAAGTACAAAAAAAAAAAATGGA [XGTACX_site136] — within error, 8.02 ± 0.29
- CAGGGCAGGGGGAAGGGTACACATAAAAGAAAATAA [XGTACX_site172] — higher, 9.36 ± 0.16
- AAAAATAAACGACAGTGTACTAAATATTTAATTTTC [XGTACX_site3580] — within error, 7.83 ± 0.48
- TATTCTAAAGAAATTACACACATGCAATGAAAAAAA [CACACA_site6895] — within error, 8.09 ± 0.81
- TATAAATATATATTTTGTACTTAATATAAATTTATA [XGTACX_site7996] — within error, 7.5 ± 0.35
- TTTTATAATTTCTTCTGTACATATATATGAAAATAT [XGTACX_site74] — within error, 8.05 ± 0.47
- TCAACCAAAACATAAGCATGCAATATATTTTTATAC [TGCATGCA_site560] — within error, 7.8 ± 0.68
- AAAAAAAAATATAACAGTACATAAACATATGAATAT [XGTACX_site7093] — within error, 7.57 ± 0.72
- TTATATATTTTTATGTGTACTTATATATATATATAT [XGTACX_site6211] — higher, 9.41 ± 0.32
- AACAAAAACACTTTTACACACATAAGTAAAATATAT [CACACA_site1994] — within error, 7.85 ± 0.57
- CACAAAGACACAAACACACACACACCCACATACATA [CACACA_site452] — within error, 8.14 ± 0.19
- ATTTCCCTATATAGAGCATGCACTATATTCAAATGA [TGCATGCA_site531] — higher, 8.79 ± 0.33
- AATATTTATTTTATATGTACATAATTTATTTTTAAT [XGTACX_site776] — within error, 7.8 ± 0.41
- AAAAAAAAAAAAAAAACACACAAGGATCATATATAT [CACACA_site3812] — higher, 8.62 ± 0.5
- GATTTGTCTTACAGTGGTACACTTATATATATGTGA [XGTACX_site2899] — within error, 7.88 ± 0.63

Reference: the supplement of paper PMC11417369
